Laboratory results reported in the supplement of paper PMC8728848.
This is one part of the list.

What was measured:
Experiment in all cases: glycan array binding signal (z-score within array); higher = stronger binding
Details in all cases: glycan notation: IUPAC condensed, linker removed
[1] = biological target: Man(a1-3)[Man(a1-6)]Man(a1-6)[Man(a1-3)]Man
Procedure, shortened: (§1)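 The binding signal is a Z-score computed within each array and averaged over linkers. Arrays of the same protein sequence at different concentrations or buffers were also averaged together. Data originate from 3228 arrays in the Consortium for Functional Glycomics database, kept only where the protein sequence was available.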

[2] = biological target: Man(a1-3)[Man(a1-6)]Man(a1-6)[Man(a1-3)]Man(b1-4)GlcNAc(b1-4)GlcNAc
Procedure, shortened: as §1

[3] = biological target: Man(a1-3)[Man(a1-6)]Man(b1-4)GlcNAc(b1-4)GlcNAc
Procedure, shortened: as §1

[4] = biological target: Man(a1-3)[Man(a1-6)]Man(b1-4)GlcNAc(b1-4)[Fuc(a1-6)]GlcNAc
Procedure, shortened: as §1

Man(a1-6)Man = biological target: Man(a1-6)Man
Procedure, shortened: as §1

Man(b1-4)GlcNAc = biological target: Man(b1-4)GlcNAc
Procedure, shortened: as §1

MurNAc(b1-4)GlcNAc = biological target: MurNAc(b1-4)GlcNAc
Procedure, shortened: as §1

Neu5Ac(a2-3)Gal = biological target: Neu5Ac(a2-3)Gal
Procedure, shortened: as §1

[5] = biological target: Neu5Ac(a2-3)Gal(b1-3)GalNAc
Procedure, shortened: as §1

[6] = biological target: Neu5Ac(a2-3)Gal(b1-3)GalNAc(b1-3)Gal(a1-4)Gal(b1-4)Glc
Procedure, shortened: as §1

[7] = biological target: Neu5Ac(a2-3)Gal(b1-3)GalNAc(b1-4)[Neu5Ac(a2-3)]Gal(b1-4)Glc
Procedure, shortened: as §1

[8] = biological target: Neu5Ac(a2-3)Gal(b1-3)GalNAc(b1-4)[Neu5Ac(a2-8)Neu5Ac(a2-3)]Gal(b1-4)Glc
Procedure, shortened: as §1

[9] = biological target: Neu5Ac(a2-3)Gal(b1-3)GalNAc6S
Procedure, shortened: as §1

[10] = biological target: Neu5Ac(a2-3)Gal(b1-3)GlcNAc
Procedure, shortened: as §1

[11] = biological target: Neu5Ac(a2-3)Gal(b1-3)GlcNAc(b1-2)Man
Procedure, shortened: as §1

[12] = biological target: Neu5Ac(a2-3)Gal(b1-3)GlcNAc(b1-2)Man(a1-3)[GlcNAc(b1-4)][Neu5Ac(a2-3)Gal(b1-3)GlcNAc(b1-2)Man(a1-6)]Man(b1-4)GlcNAc(b1-4)GlcNAc
Procedure, shortened: as §1

[13] = biological target: Neu5Ac(a2-3)Gal(b1-3)GlcNAc(b1-2)Man(a1-3)[Neu5Ac(a2-3)Gal(b1-3)GlcNAc(b1-2)Man(a1-6)]Man(b1-4)GlcNAc(b1-4)GlcNAc
Procedure, shortened: as §1

[14] = biological target: Neu5Ac(a2-3)Gal(b1-3)GlcNAc(b1-3)Gal(b1-3)GlcNAc
Procedure, shortened: as §1

[15] = biological target: Neu5Ac(a2-3)Gal(b1-3)GlcNAc(b1-3)Gal(b1-4)GlcNAc
Procedure, shortened: as §1

[16] = biological target: Neu5Ac(a2-3)Gal(b1-3)GlcNAc(b1-3)GalNAc
Procedure, shortened: as §1

[17] = biological target: Neu5Ac(a2-3)Gal(b1-3)GlcNAc(b1-4)Gal(b1-4)Glc
Procedure, shortened: as §1

[18] = biological target: Neu5Ac(a2-3)Gal(b1-3)GlcNAc(b1-6)GalNAc
Procedure, shortened: as §1

[19] = biological target: Neu5Ac(a2-3)Gal(b1-3)GlcNAc6S
Procedure, shortened: as §1

[20] = biological target: Neu5Ac(a2-3)Gal(b1-3)[Fuc(a1-4)]GlcNAc
Procedure, shortened: as §1

[21] = biological target: Neu5Ac(a2-3)Gal(b1-3)[Fuc(a1-4)]GlcNAc(b1-3)Gal(b1-3)[Fuc(a1-4)]GlcNAc
Procedure, shortened: as §1

[22] = biological target: Neu5Ac(a2-3)Gal(b1-3)[Fuc(a1-4)]GlcNAc(b1-3)Gal(b1-4)[Fuc(a1-3)]GlcNAc
Procedure, shortened: as §1

[23] = biological target: Neu5Ac(a2-3)Gal(b1-3)[GlcNAc(b1-6)]GalNAc
Procedure, shortened: as §1

[24] = biological target: Neu5Ac(a2-3)Gal(b1-3)[Neu5Ac(a2-6)]GalNAc
Procedure, shortened: as §1

[25] = biological target: Neu5Ac(a2-3)Gal(b1-3)[Neu5Ac(a2-6)]GlcNAc(b1-3)[Fuc(a1-3)[Gal(b1-4)]GlcNAc(b1-6)]Gal(b1-4)Glc
Procedure, shortened: as §1

[26] = biological target: Neu5Ac(a2-3)Gal(b1-3)]Neu5Ac(a2-3)Gal(b1-4)]GlcNAc
Procedure, shortened: as §1

Neu5Ac(a2-3)Gal(b1-4)Glc = biological target: Neu5Ac(a2-3)Gal(b1-4)Glc
Procedure, shortened: as §1

[27] = biological target: Neu5Ac(a2-3)Gal(b1-4)GlcNAc
Procedure, shortened: as §1

[28] = biological target: Neu5Ac(a2-3)Gal(b1-4)GlcNAc(b1-2)Man
Procedure, shortened: as §1

[29] = biological target: Neu5Ac(a2-3)Gal(b1-4)GlcNAc(b1-2)Man(a1-3)[GlcNAc(b1-4)][Neu5Ac(a2-3)Gal(b1-4)GlcNAc(b1-2)Man(a1-6)]Man(b1-4)GlcNAc(b1-4)GlcNAc
Procedure, shortened: as §1

[30] = biological target: Neu5Ac(a2-3)Gal(b1-4)GlcNAc(b1-2)Man(a1-3)[Neu5Ac(a2-3)Gal(b1-4)GlcNAc(b1-2)Man(a1-6)]Man(b1-4)GlcNAc(b1-4)GlcNAc
Procedure, shortened: as §1

[31] = biological target: Neu5Ac(a2-3)Gal(b1-4)GlcNAc(b1-2)Man(a1-3)[Neu5Ac(a2-3)Gal(b1-4)GlcNAc(b1-2)Man(a1-6)]Man(b1-4)GlcNAc(b1-4)[Fuc(a1-6)]GlcNAc
Procedure, shortened: as §1

[32] = biological target: Neu5Ac(a2-3)Gal(b1-4)GlcNAc(b1-2)Man(a1-3)[Neu5Ac(a2-6)Gal(b1-4)GlcNAc(b1-2)Man(a1-6)]Man(b1-4)GlcNAc(b1-4)GlcNAc
Procedure, shortened: as §1

[33] = biological target: Neu5Ac(a2-3)Gal(b1-4)GlcNAc(b1-2)[Neu5Ac(a2-3)Gal(b1-4)GlcNAc(b1-4)]Man(a1-3)[GlcNAc(b1-4)][Neu5Ac(a2-3)Gal(b1-4)GlcNAc(b1-2)[Neu5Ac(a2-3)Gal(b1-4)GlcNAc(b1-6)]Man(a1-6)]Man(b1-4)GlcNAc(b1-4)GlcNAc
Procedure, shortened: as §1

B1: PX9961C-bth-497-22-497 (Bacteroides thetaiotaomicron) (protein)
chain: DWLDLNTTSSVETGQAIVTLDDAQIALNGIYRLASGHSYYGDNYWYYGDCRAADVQARITKGDGKRVSPYYEYNVLASDNLNIVLPWNTVYKVIRQTNNLIQKIESGSIQSSDTKELNRIKSEALVMRGLSLFNLTRLFGMPYTNDKGASLGVPIETSPSDPTHKPSRSTVAQCYEQVVSDMSNALSGLRQETSNGYINYWAAQALLSRVYLNMGEYQKAYDAATDVIKNNGGRYQLYSYEEYPNVWGQDFQSESLFELYITLSEPSGGTGGEGAPMVYANEATVDWNNLILSEDFLNLLNEDPKDVRHCLTKESVIENNTGLPAAAMHEKVYLAKFPGKTGDDPKTNNICIIRLSEVYLNAAEAGLKKGTDIEEAQGYLNDIISRRTTDTSQQVSTETFTLDRILKERRKELVGEGEVFYDYLRNGLAIERKGSWHLETLKASNAQKIEATDLRIALPIPQSEIDANPNIQQNPR
- glycan array binding signal (z-score) [1]: 0.438
- glycan array binding signal (z-score) [2]: 0.217
- glycan array binding signal (z-score) [3]: 0.467
- glycan array binding signal (z-score) [4]: -0.057
- glycan array binding signal (z-score) (Man(a1-6)Man): -0.481
- glycan array binding signal (z-score) (Man(b1-4)GlcNAc): -0.206
- glycan array binding signal (z-score) (MurNAc(b1-4)GlcNAc): 0.039
- glycan array binding signal (z-score) (Neu5Ac(a2-3)Gal): -0.499
- glycan array binding signal (z-score) [5]: 0.385
- glycan array binding signal (z-score) [6]: -0.562
- glycan array binding signal (z-score) [7]: -0.488
- glycan array binding signal (z-score) [8]: 0.021
- glycan array binding signal (z-score) [9]: 0.621
- glycan array binding signal (z-score) [10]: -0.305
- glycan array binding signal (z-score) [11]: -0.458
- glycan array binding signal (z-score) [12]: -0.488
- glycan array binding signal (z-score) [13]: 0.211
- glycan array binding signal (z-score) [14]: -0.653
- glycan array binding signal (z-score) [15]: 0.993
- glycan array binding signal (z-score) [16]: -0.161
- glycan array binding signal (z-score) [17]: -0.102
- glycan array binding signal (z-score) [18]: -0.344
- glycan array binding signal (z-score) [19]: 0.111
- glycan array binding signal (z-score) [20]: -0.629
- glycan array binding signal (z-score) [21]: 2.16
- glycan array binding signal (z-score) [22]: -0.333
- glycan array binding signal (z-score) [23]: -0.029
- glycan array binding signal (z-score) [24]: -0.545
- glycan array binding signal (z-score) [25]: -0.322
- glycan array binding signal (z-score) [26]: -0.482
- glycan array binding signal (z-score) (Neu5Ac(a2-3)Gal(b1-4)Glc): -0.045
- glycan array binding signal (z-score) [27]: -0.558
- glycan array binding signal (z-score) [28]: -0.404
- glycan array binding signal (z-score) [29]: -0.279
- glycan array binding signal (z-score) [30]: -0.106
- glycan array binding signal (z-score) [31]: -0.32
- glycan array binding signal (z-score) [32]: -0.587
- glycan array binding signal (z-score) [33]: -0.104
